# Laboratory results from the supplement of paper PMC11417369.
# The list shows a part of the results.
# Tested on: PfAP2-HC AP2 domain (GST-tagged)
# Assay: gcPBM binding intensity (ln(normalized median fluorescence intensity)); higher = stronger DNA binding
# In short: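 The highest Masliner-normalised natural-log median intensity across replicate spots of either probe orientation is reported as binding intensity. GST-tagged P. falciparum DNA-binding domains expressed in E. coli were applied for 1 h to an Agilent 4 × 180k array of primer-extended double-stranded 36-bp intergenic genomic probes plus negative controls, and bound protein was detected with Alexa488 anti-GST antibody and scanned at 488 nm.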
row,Sequence,gcPBM binding intensity (ln)
1,CAAGGACAATTTACAAACATAATATATGTATATATA [TGCATGCA_negctrl_site5],9.54
2,TTGAATACATATATATGTACATATTCTATGGTTAGA [XGTACX_site4088],9.59
3,AATATATATTCATGTGTACACACAAAAAAAAATAAA [CACACA_site8690],10.5
4,CCTATAATTAGGGGTAGTACACAAAAAAAAAAAAAA [XGTACX_site6396],9.36
5,AATTCCTTATACAATTGTACATAAAAAGAATAAAAA [XGTACX_site1343],9.61
6,TTAAAAAAGAATTGTGCACACACAAAAAATGTTCAT [CACACA_site1102],10.1
7,TTTTTTTTACATGAACGTACATAATATATTTTATAA [XGTACX_site5249],9.42
8,TGGTGTTTTTTTTAATGTACTTATAAAATAATACAT [XGTACX_site6574],9.57
9,ATGTAAAAATAAAGATGTACATGTATATATATATAT [XGTACX_site5193],10.1
10,AAAAAATATTTTAGTGGTACATTTGTAGCTCTCAAA [XGTACX_site4859],9.54
11,AATCAAATATTTAAATGTACTCAAGAAGGCTTAATC [XGTACX_site6907],9.61
12,ATAACATGAACATATGTTACACAAACATACATACAT [XGTACX_negctrl_site365],9.91
13,AAAAATATAATATAATGTACACAAAAAAAAAAAATC [XGTACX_site1427],9.96
14,TATGAAGACACAAATACACACACTCAAAAAAAAAAA [CACACA_site2660],10.1
15,GAAAAAAAAAAAAAAAAACACACGGTACATTCAAAG [CACACA_site303],9.75
16,AAAAAGAAGATGCAAACATGCACACAGAAAAAAAAA [TGCATGCA_site375],10.1
17,AAAAAAAAAAAAATTACACACATACAGATAATAATA [CACACA_site5244],10.1
18,TTTTTTTTTTGAATATGTACTTAAAAAAATTTTTTT [XGTACX_site3851],9.45
19,CTATTATAAAAATGATGTACACTTATATATACATAT [XGTACX_site6087],9.88
20,TTTTCATTCCACAACGCACACCCATTTAAAAAAAAA [CACACA_site1377],9.68
21,TAATTTTTTTTTTTTTTTTTTTTTTTTTTTTTTTTA [CACACA_negctrl_site1218],9.13
22,TACATACATACATACATACACACATATATATATATA [CACACA_site1996],9.83

row,Sequence,gcPBM binding intensity (ln)
1,TACATGTATAATATAATACACACTATATAATATACA [CACACA_site2239],9.72
2,AAATTATAATTAGGAACACACATATATATATATATA [CACACA_site3098],9.67
3,ACAACAATATGGAATTGTACATATATATATAAATAT [XGTACX_site3139],9.81
4,TATTTTTTTGTGTTTGGTACACACGTTATAAAAAAT [XGTACX_site2655],9.64
5,CTAGCAAATACATACACACACACACCCATACATATA [CACACA_site3496],10.7
6,TACACAAAACATAAAAGTACATAATAATAAAGTTAA [XGTACX_site8872],9.88
7,GAACAAATAAAAAGGAGTACAATCAAATCTACGTAT [XGTACX_site343],9.91
8,TAAATAAATACATACACACACATACATATATATATA [CACACA_site3129],10.1
9,TTATTGTTTATTAAATGTACAGATTCGTTAAAATTA [XGTACX_site3041],9.19
10,ATTTGGCATAAACACACACACACACCCACCCACATA [CACACA_site8096],10.9
11,TTTTTATTGAGAACAGTGCAAATAACAAAAAAAAAA,9.55
12,TTATAATAAATATGAAGTACTATAAATATGGTATAT [XGTACX_site5448],9.75
13,CACTAAAATGGACACACACACACACCGATATATATA [CACACA_site6139],10.5
14,ATCGCATAAAGACAAGAACACACATATATATTGTAG [CACACA_site9229],9.74
15,AATAAATATAGGAATACACACAATATAAATGTATTG [CACACA_site3366],9.86
16,CATATATAAAATATATGTACTTATAGAACATAATTT [XGTACX_site1936],9.48
17,CATTTTTTAAGCATCACACACGAAAGAACAAAGTGG [CACACA_site4755],9.79
18,TGGAAAATTATAAGGTGTACATATAAGCTATTATAT [XGTACX_site118],9.63
19,TTTTTTTTTTTAAGGTGTACAATAAAAATTTATGCA [XGTACX_site8860],9.22
20,AGTATACATTCATTTTGTACTCAATGATTTGATAAC [XGTACX_site6787],9.64
21,ATAATTATATTCCATACACACATATATTTAAAGGTT [CACACA_site2957],9.81
22,AGGAATAAATAATTAACACACACAATCTTTTTTTTT [CACACA_site9027],10.1

row,Sequence,gcPBM binding intensity (ln)
1,TAATAAGTATAAAATAGTACATATAAATATATCAAA [XGTACX_site8834],9.75
2,ACTTTTTCACATAAAAATGATCCGATTAGTAATAAT [XGTACX_negctrl_site248],9.45
3,ATAATATTAGTAAACACACTCAAATTATATATGATA [CACACA_site5721],9.75
4,AAATAAAAAAACTATTGTACTGAATACAAATTAAAT [XGTACX_site3793],9.81
5,CATTATGTTGTAAATACACACATACCTATACATACA [CACACA_site6485],9.84
6,TATTTATTTATATTTACACACATTCATATAAATTCA [CACACA_site7628],9.77
7,TCTGAGAATGATAAAAAAAAAAAAAATGAAAAATTA [CACACA_negctrl_site1478],9.27
8,ACGATATTTTTGGTGACACACATATATATATATATA [CACACA_site126],9.8
9,TTTTTTTTTTTATCTGCACACCCTTTTGTGAATATT [CACACA_site789],9.8
10,ATGCAATAAATATACACACACAAATCTATATTTATA [CACACA_site7179],10.5
11,AATTATTATATATATATATATATATATTTATATATT [GTGCAC_negctrl_site387],9.91
12,AGTTCAAGGATTAAGACACACATATAAATAAATAAA [CACACA_site3662],9.79
13,AAATAAAATAATTATAATACTAAAAATAATACATAA [GTGCAC_negctrl_site106],9.75
14,TTTTTTTTGTAGAATTGTACTTATAAAATATATATA [XGTACX_site2116],9.33
15,AAAAAATGGATGATCACACACTTCATAAAAGTTGCA [CACACA_site7109],9.73
16,AATGAGCGTTAAAAATGTACAGAAAATTGGAATTAT [XGTACX_site5743],9.81
17,AAAACTTTTAGTTATACACACAACATAGAAAATATT [CACACA_site6287],9.84
18,AACAATCAAATAGACACACACACACCCAAACATAAA [CACACA_site2757],10.6
19,CTCCTACAAATATGTAGTACATTCAAAATAAATACC [XGTACX_site8207],9.45
20,GTAAAAAATATGAATACACACATAAAGGAAATAACA [CACACA_site1997],10.2
21,AAAAAAAAAAAATTCACACACATATAAAAAATTAAG [CACACA_site728],10
22,AAAAAAAAAAAAAAAAGTACAGACGTCAAAAAAAAA [XGTACX_site4817],9.51

row,Sequence,gcPBM binding intensity (ln)
1,TAATATATAAGTATTTGTACATATTCATTCATCTAT [XGTACX_site2935],9.73
2,TTTTTTTTTTTTTTTTTTTTTTTTGGGTCCCATACA [CACACA_negctrl_site913],8.88
3,TTTTAATTATATTATGCACACACAATTGGAAAAAAA [CACACA_site8598],9.76
4,AACAAATAAGATAAATGACTTAACAAAAGAAAAAAG [CACACA_negctrl_site1409],9.96
5,CTTATACATTATTAACGTACATGTTATATGAATAAC [XGTACX_site5752],9.6
6,TTTTTTTTTTTTTTTTTTTTTTTTAAATGCTTCTAA [TGCATGCA_negctrl_site253],8.94
7,CACTATCAATATATATGTACATATATATATATATAT [XGTACX_site7854],9.76
8,GTCACATTGTTATATTGTACAAATGTCGTTCTTTTT [XGTACX_site8098],9.78
9,TAAATATATAAATACACACAAACATACATATATATA [CACACA_site4050],10.1
10,ATATAAAAATATATTAATATAAATAAATGGACATAT [XGTACX_negctrl_site488],10.1
11,AAAAAAAAAAAAAAATGTACTTTTATTATTAATATA [XGTACX_site6357],9.48
12,TTTGAACTTTTATATACACACATTATTATAGTATAG [CACACA_site6851],9.77
13,AGTTCATATTTAAAAAGTACATATTTAAAAACTTCT [XGTACX_site4882],9.4
14,ATGCATATATTTATGTGTACATATATTTGTAGGGGG [XGTACX_site6063],11.2
15,TTCTTTGTTTTTTTTTTTTTTTTAAAAGATAATATT [XGTACX_negctrl_site381],9.5
16,TTTATTTTTCATTGGGGTACACAAGTTTATTTTTGA [XGTACX_site4262],9.63
17,ATATCGTTTTTAAATTGTACATTCACTATAGAATAA [XGTACX_site6442],9.52
18,ATATATTTATTTTGTGCACACAACGCAAACCTTTTA [CACACA_site3508],10.2
19,ATTTTTTCTTTTCGATGTACCCTTCTTATTCTTTAT [XGTACX_site3782],10.1
20,TATATCGCCTTCAAAAGTACTCATATAAAAAAAAAA [XGTACX_site7123],9.04
21,ATATCGAAAATTTGGTGTACATTTTTATTTGTTCAA [XGTACX_site3094],9.65
22,AGAATATATAAGTATACACACATATATATATATATA [CACACA_site201],10
